Laboratory results reported in PubChem BioAssay AID624417 (National Center for Advancing Translational Sciences (NCATS), 2012).
Among all 410,000 compounds or so, about 6,400 (1.6%) were called active. The inconclusive results got no clear call from the source; some entries with a clear call stand among them for comparison. Calls come from the whole dose curve; as a rule, active = well fitted inhibition curve with a large enough effect; inconclusive = small, poorly fitted or top-dose-only effect; inactive = no such curve, though single readings can be large or run the other way. No potency is given beside an inconclusive call; the fits are too rough.

Biological target: Glucagon-like peptide 1 receptor (Homo sapiens) (UniProt P43220)
UniProt P43220, sequence (P43220 whole entry, looked up): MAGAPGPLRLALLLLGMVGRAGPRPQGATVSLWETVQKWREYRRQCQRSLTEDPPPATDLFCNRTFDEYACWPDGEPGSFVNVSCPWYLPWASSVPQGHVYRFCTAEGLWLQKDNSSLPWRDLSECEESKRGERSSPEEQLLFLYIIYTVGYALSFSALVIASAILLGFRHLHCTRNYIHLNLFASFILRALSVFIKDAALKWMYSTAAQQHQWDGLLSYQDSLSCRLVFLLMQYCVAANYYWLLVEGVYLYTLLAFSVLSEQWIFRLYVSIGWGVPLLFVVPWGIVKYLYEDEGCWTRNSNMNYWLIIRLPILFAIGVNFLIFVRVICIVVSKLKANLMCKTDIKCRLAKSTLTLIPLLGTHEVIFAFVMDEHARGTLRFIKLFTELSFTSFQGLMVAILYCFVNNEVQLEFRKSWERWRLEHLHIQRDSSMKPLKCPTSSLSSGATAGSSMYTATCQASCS
Assay: qHTS of GLP-1 Receptor Inverse Agonists (Inhibition Mode); note: nearly all actives have a fitted effect of over 55% in size
Settings: HEK293 GLP-1R CRE-luciferase, luminescence, 24 h, GLP-1R form is constitutively active; series mostly up to 38.3 µM
How it was run: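 Constitutively active GLP-1R drives a cAMP-responsive luciferase in stably transfected HEK293 cells; test compounds are added after overnight (12 h) attachment and left 24 hr, and signal loss in luminescence marks inhibition.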
Potency is the fitted concentration of half-maximal effect; tags give direction and shape of the fitted curve.

| Structure (SMILES) | Potency |
| --- | --- |
| C[C@@H](NC(=O)Cn1cnc2c(OCc3ccccc3)ncnc21)c1cccc2ccccc12 | inconclusive [inhibitor, partial curve, poor fit] |
| Cc1ccc(S(=O)(=O)Oc2ccccc2/C=N/Nc2ccc(C(=O)O)cc2)cc1 | inconclusive [inhibitor, partial curve, poor fit] |
| COc1ccc(CCNc2ncnc3c2cnn3-c2ccc(C)c(Cl)c2)cc1 | inactive |
| CC(C)CC(C)NC(=O)c1ccc(C(F)(F)F)cc1 (stereo not drawn) | inconclusive [inhibitor, partial curve, poor fit] |
| CCCCN(CCCC)S(=O)(=O)c1ccc(NC(=O)CN2CCOCC2)cc1 | inconclusive [inhibitor, partial curve, poor fit] |
| Cc1ccc(N2C(=O)N3[C@H](c4ccc(F)cc4)[C@@H]4C(=O)N(C5CCCCC5)C(=O)[C@@H]4[C@]3(Cc3ccccc3)C2=O)cc1 | inconclusive [inhibitor, partial curve, poor fit] |
| O=[N+]([O-])c1c(Nc2ccccn2)cc(Cl)c2nonc12 | inconclusive [inhibitor, single point] |
| Nc1nc(CN2CCN(C(c3ccccc3)c3ccccc3)CC2)nc(Nc2ccccc2)n1 | inconclusive [inhibitor, partial curve, poor fit] |
| O=c1c2ccccc2cnn1CCOc1cccc(Br)c1 | inconclusive [inhibitor, single point] |
| O=C(CCCN1CCOC(c2ccccc2)C1)c1ccc(F)cc1 (stereo not drawn) | inconclusive [inhibitor, partial curve, poor fit] |
| CS(=O)(=O)c1ncc(Cl)c(C(=O)Nc2ccc3ccccc3c2)n1 | inconclusive [inhibitor, full curve, poor fit] |
| CCC(=O)c1cn(CC(=O)Nc2cccc(OC)c2)c2ccccc12 | inactive |
| COc1ccccc1CNC(=O)CCNS(=O)(=O)c1cc(Br)cnc1N | inconclusive [inhibitor, partial curve, poor fit] |
| COc1ccc(NC(=O)c2c(F)cccc2F)cc1S(=O)(=O)Nc1ccc(Br)cc1 | inconclusive [inhibitor, single point] |
| Cc1c(C(=O)OCC(=O)N(C)Cc2ccccc2)oc2ccccc12 | inconclusive [inhibitor, partial curve, poor fit] |
| COc1ccc([C@@H]2[C@H]3CN(C(C)=O)CC=C3C(C#N)=C(N)C2(C#N)C#N)c2ccccc12 | inconclusive [inhibitor, partial curve, poor fit] |
| C/C(=N\NC(=O)c1cc(-c2cccs2)nc2ccccc12)c1ccccn1 | active: 2.82 µM |
| COc1ccc(C(=O)N(CN2CCCC2=O)c2cc(C)on2)cc1OC | inconclusive [inhibitor, partial curve, poor fit] |
| CN(C)CCn1c2c(c(SCC(=O)N3CCc4ccccc43)nc1=O)CCCC2 | inconclusive [inhibitor, partial curve, poor fit] |

| Structure (SMILES) | Potency |
| --- | --- |
| CCCCc1ccc(NS(=O)(=O)c2cc3c4c(c2)CC(=O)N4CCC3)cc1 | inconclusive [inhibitor, partial curve, poor fit] |
| O=C(Nc1ccc(F)c(Cl)c1)c1cc(C2CCCN(S(=O)(=O)c3ccccc3)C2)on1 (stereo not drawn) | inconclusive [inhibitor, partial curve, poor fit] |
| COc1cccc(N2CCN(C(=O)c3cnn(-c4ccccc4Cl)c3C3CCN(C(=O)OC(C)(C)C)CC3)CC2)c1 | inconclusive [inhibitor, single point] |
| C=CCN1CCN(C(=O)c2cc3c(s2)CCC(CC)C3)CC1 (stereo not drawn) | inconclusive [inhibitor, single point] |
| Cc1cc(Cl)ccc1C(=O)C1CCCN(C(=O)c2ccc3ncccc3c2)C1 (stereo not drawn) | inconclusive [inhibitor, single point] |
| N#Cc1ccc(/C=C/C(=O)c2cccnc2)cc1 | inconclusive [inhibitor, partial curve, poor fit] |
| CC[C@@H](C)C(NC(=O)OC(C)(C)C)c1cn([C@@H](CCCCNC(=O)OC(C)(C)C)C(=O)N2CCN(C(=O)OC(C)(C)C)CC2)nn1 (stereo partly drawn) | inconclusive [inhibitor, single point] |
| Cc1ccc(C)c(NC(=S)NCCc2c[nH]c3ccccc23)c1 | inconclusive [inhibitor, partial curve, poor fit] |
| CN(Cc1ccc(C(F)(F)F)cc1)C(=O)c1ccc2ccccc2n1 | inconclusive [inhibitor, single point] |
| FC(F)(F)c1cnc(N2CCCN(C(=S)Nc3ccccc3)CC2)c(Cl)c1 | inconclusive [inhibitor, single point] |
| CCc1ccc2oc(-c3cc(NC(=O)c4cc(OC)c(OC)c(OC)c4)ccc3O)nc2c1 | inactive |
| CCN1C(=O)/C(=C\c2ccncc2)SC1=Nc1ccc(C)c(C)c1 | inactive |
| NC(=O)CC(NC(=O)c1ccccc1)c1ccc(N2CCN(c3ccc(F)cc3)CC2)c([N+](=O)[O-])c1 (stereo not drawn) | inconclusive [inhibitor, partial curve, poor fit] |
| COc1ccccc1NC(=O)CN1C(=O)C(c2ccc(F)cc2)=NC12CCCCC2 | inconclusive [inhibitor, partial curve, poor fit] |
| O=S(=O)(c1ccccc1)N1c2cc(Cl)ccc2Oc2nc3ccccc3nc21 | inconclusive [inhibitor, partial curve, poor fit] |
| Cn1c(=O)c2c(n3cnnc13)-c1ccccc1CC21CCCC1 | inactive |
| CCCCSc1nc2c(cnn2-c2ccc(Cl)cc2)c(=O)[nH]1 | inactive |
| Cc1cccc(NCc2cccc3ccccc23)n1 | inconclusive [inhibitor, single point] |
| CC(C)(C)OC(=O)NCc1ccc(NC(=O)c2nc[nH]c2C(=O)N[C@@H](Cc2ccccc2)C(=O)OCc2ccccc2)cc1 | inconclusive [inhibitor, single point] |
